US11365205B2 (Aurigene Discovery Technologies Limited, priority 2018, dated 2022)

These molecules were tested against PRMT5/MEP50 Complex (Homo sapiens (Human), UniProt O14744) (assay: PRMT5 inhibition based on TR-FRET assay). Conditions: 32 nM PRMT5:MEP50, 50 nM Histone-H4 peptide, 1 μM SAM.
Format: biochemical
Description: PRMT5 Inhibition Based on TR-FRET Assay:
Protein arginine methyltransferase 5 (PRMT5) is a type II arginine methyltransferase that catalyze mono- and symmetric demethylation on arginine residues of histone or non-histone proteins in presence of S-adenosylmethionine (AdoMet or SAM) a cofactor responsible for donating the methyl group. PRMT5 is reported to be overexpressed in several human cancers. To identify compounds that inhibit the PRMT5 and decrease its activity, a TR-FRET based assay has been established. Time-resolved fluorescence resonance energy transfer (TR-FRET) HTS assays are homogeneous proximity assays where the interaction of two dye-labeled binding partners is detected by the energy transfer between a donor and an acceptor dye and the subsequent light emission by the acceptor dye. PRMT5 catalyzes Histone H4 peptide which is biotin tagged to the Lysine amino acid at carboxyl end, in presence of S-adenosyl-1-methionine (SAM) to methylate the peptide. The antibody specific to mono methylated H4 peptide (H4R3) with Ig conjugate binds to the methylated peptide, indirectly binding to the Europium lanthanide. SureLight Allophycocyanin-Streptavidin binds to the biotin tag of the peptide, therefore accepting the energy transferred from the Europium lanthanide. This energy transfer between Europium to SureLight Allophycocyanin is a direct measure of the activity/inhibition of the PRMT5 enzyme.
Assay buffer: 20 mM BICINE (pH 7.6), 25 mM NaCl, 2 mM DTT, 0.01% Tween-20 and 0.01% BSA.
The compound dilutions were prepared as 7.5% DMSO stock solutions in assay buffer. To 2 μL (7.5×) of test compound, 5 μL of PRMT5 enzyme prepared in assay buffer (Final concentration of 32 nM in 15 μL reaction volume) was added and allowed for 30 minutes pre-incubation time in a white polystyrene 384-well plate at room temperature. […] The plates were then read on Victor-3 with Excitation at 340 nm and Emissions collected at 615 and 665 nm in TR-FRET protocol. […]

UniProt O14744, sequence (O14744 whole entry): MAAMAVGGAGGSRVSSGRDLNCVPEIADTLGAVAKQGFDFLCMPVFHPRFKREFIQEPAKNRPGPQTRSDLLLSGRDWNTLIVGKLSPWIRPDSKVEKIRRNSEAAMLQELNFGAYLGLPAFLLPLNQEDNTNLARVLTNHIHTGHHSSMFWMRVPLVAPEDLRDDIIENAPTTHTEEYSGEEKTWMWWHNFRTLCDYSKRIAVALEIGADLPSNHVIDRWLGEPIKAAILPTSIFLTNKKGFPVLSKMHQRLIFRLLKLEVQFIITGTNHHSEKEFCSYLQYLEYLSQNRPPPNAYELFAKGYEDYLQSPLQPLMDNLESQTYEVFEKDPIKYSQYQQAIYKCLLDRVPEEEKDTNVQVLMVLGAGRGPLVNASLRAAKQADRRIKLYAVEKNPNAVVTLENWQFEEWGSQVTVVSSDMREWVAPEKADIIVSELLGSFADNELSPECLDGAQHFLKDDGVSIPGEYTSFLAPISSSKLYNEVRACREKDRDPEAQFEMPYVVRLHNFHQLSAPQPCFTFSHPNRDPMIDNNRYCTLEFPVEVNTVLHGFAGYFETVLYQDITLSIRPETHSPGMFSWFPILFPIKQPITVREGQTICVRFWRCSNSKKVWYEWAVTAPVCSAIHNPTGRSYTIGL
UniProt O14744, sequence (Q9BQA1 whole entry partner): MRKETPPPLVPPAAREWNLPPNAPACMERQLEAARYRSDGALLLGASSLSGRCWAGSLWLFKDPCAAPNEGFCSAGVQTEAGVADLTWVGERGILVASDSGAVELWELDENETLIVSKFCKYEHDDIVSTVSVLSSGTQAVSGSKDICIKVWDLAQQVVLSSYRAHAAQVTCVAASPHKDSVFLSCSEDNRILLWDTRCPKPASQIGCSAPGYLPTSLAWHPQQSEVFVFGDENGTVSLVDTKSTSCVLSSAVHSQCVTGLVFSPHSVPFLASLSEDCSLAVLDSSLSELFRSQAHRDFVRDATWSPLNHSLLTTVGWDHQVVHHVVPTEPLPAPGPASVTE

Row | IC50 [nM] | Structure (SMILES)
1 | 130 | CC(C)c1ccc(CN2CCN(CC(O)CN3CCc4ccccc4C3)C2=O)cn1 (stereo not drawn) [Example 28]
2 | 2100 | CC(=O)c1ccc(CN2CCN(CC(O)CN3CCc4ccccc4C3)C2=O)cn1 (stereo not drawn) [Example 32, 1-((6-Acetylpyridin-3-yl)methyl)-3-(3-(3,4-dihydroisoquinolin-2(1H)-yl)-2-hydroxypropyl)imidazolidin-2-one]
3 | 210 | N#Cc1ccc(N2CCN(CC(O)CN3CCc4ccccc4C3)C2=O)cc1 (stereo not drawn) [Example 33, 4-(3-(3-(3,4-dihydroisoquinolin-2(1H)-yl)-2-hydroxypropyl)-2-oxoimidazolidin-1-yl)benzonitrile]
